# Screen size: about 420,000 compounds; about 64,000 (15%) were called active. This list was built around the results that the source calls inconclusive (neither active nor inactive); the mix of calls is not that of the screen. Calls come from the whole dose curve; as a rule, active = well fitted inhibition curve with a large enough effect; inconclusive = small, poorly fitted or top-dose-only effect; inactive = flat fitted curve, though single readings scatter. No potency is given beside an inconclusive call; the fits are too rough.
# Experiment: qHTS for Inhibitors of human tyrosyl-DNA phosphodiesterase 1 (TDP1): qHTS in cells in absence of CPT; note: nearly all actives have a fitted effect of over 55% in size
# Details: DT40 Tdp1-/- hTDP1 cells, no CPT, ATP luminescence, 48 h; activity change, negative = growth inhibition: at 46.2 µM (top of the series)
# Outline: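 DT40 Tdp1-/-;hTDP1 cells, no CPT (DMSO vehicle only), 400 cells/well; compounds pin-transferred; ≥48 hr, 37 °C; CellTiter-Glo 30 min RT dark, luminescence read.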
# % is set by controls: 0 for no effect and ±100 for the full control effect; potency is the fitted concentration of half-maximal effect; tags give direction and shape of the fitted curve.
SMILES,"activity change, negative = growth inhibition",Potency
N=c1c(C(=O)NC2CCCC2)cc2c(=O)n3ccccc3nc2n1CCN1CCOCC1,inactive: -3.25%,–
CSc1nn(-c2ccc(C(=O)OC(C(=O)NC(N)=O)C(C)C)cc2)c(=S)s1 (stereo not given),–,"inconclusive [inhibitor, single point]"
CS(=O)(=O)N(CC(=O)N1CCCC1)Cc1ccc(Cl)c(Cl)c1,–,"inconclusive [inhibitor, single point]"
COc1cc(C(=O)NCCN2C(=O)S/C(=C\c3ccc(F)cc3)C2=O)ccc1OCC(=O)N1CCOCC1,–,active: 14.6 µM
Cc1ccc(C)n1CCN1CCN(CC(=O)Nc2ccc(S(N)(=O)=O)cc2)CC1,–,"inconclusive [inhibitor, single point]"
Cc1cc(C)cc(N=C2SC(CC(=O)Nc3ccccc3)C(=O)N2CCN2CCOCC2)c1 (stereo not given),–,"inconclusive [inhibitor, single point]"
Cc1csc(NC(=O)CSc2nc3ccccc3s2)n1,–,"inconclusive [inhibitor, single point]"
O=Cc1cn(CC(=O)Nc2ccccc2)c2ccccc12,–,"inconclusive [inhibitor, full curve, poor fit]"
Cc1ccc([N+](=O)[O-])cc1S(=O)(=O)n1ccnc1C,–,active: 18.4 µM
CC(CCN1CCN(c2ccccc2)CC1)c1ccccc1 (stereo not given),–,"inconclusive [inhibitor, single point]"
Cc1cc(NC(=O)CSc2nc(C(C)C)nc3ccccc23)no1,–,"inconclusive [inhibitor, single point]"
N#CCCN1CCC(NC(=O)OCc2ccccc2)CCC1=O (stereo not given),–,inactive
CCCN1CCN(C(=O)Nc2cccc(C(F)(F)F)c2)CC1,inactive: -13.8%,–
COc1ccc(OCc2cccc(C(=O)O)c2)cc1,–,"inconclusive [inhibitor, partial curve]"
O=C(O)C1CC=CCC1C(=O)Nc1ccc(Oc2ccc(Cl)cc2)cc1 (stereo not given),inconclusive: -33.5% [inhibitor],–
CCn1c(Cc2ccccc2)nnc1SCC(=O)Nc1ccc(N2CCOCC2)c(Cl)c1,–,"inconclusive [inhibitor, full curve]"
COc1ccc(C2c3[nH]c4ccccc4c3CCN2Cc2ccoc2)c(F)c1 (stereo not given),–,active: 16.4 µM
COC(=O)c1ccc2c(=O)n(CC3CCCO3)c(=S)[nH]c2c1 (stereo not given),inactive: -7.54%,–
CCn1c(CNC(=O)COc2ccc(C(C)C)cc2)nnc1SCC(=O)Nc1cc(F)ccc1C,–,"inconclusive [inhibitor, single point]"
Cc1ccc(/C=N/NC(=O)CN2CCN(Cc3ccccc3)CC2)s1,inactive: -20.3%,–
